According to patent US20230272114A1 (published 2023):

Target: S267E
Test: Biacore SPR

Kd: 690 nM
B1: V158 FcγRIIIa (receptor)
chain: not shown
